From publication PMC6443190, “Regulation of anthocyanin accumulation via MYB75/HAT1/TPL-mediated transcriptional repression” (PLoS Genetics, 2019)
Results are given in words; binding and its absence hold for the method and conditions named. For part of these data: Binding seen in cells or lysates may run through a third protein. Sequences can lack the tags named with a protein. Some entries that bind do so weakly or less than the wild type.

Legend:
[1] = biological target: T1, EGL3 (pBridge-EGL3-HAT1, yeast three-hybrid) (Arabidopsis thaliana) (UniProt Q9CAD0); assay: two-hybrid; yeast three-hybrid: pGADT7-MYB75 with pBridge-TT8-HAT1 or pBridge-EGL3-HAT1; HAT1 under the Met-suppressible MET25 promoter; 200 uM down to 50 uM methionine
T1 sequence: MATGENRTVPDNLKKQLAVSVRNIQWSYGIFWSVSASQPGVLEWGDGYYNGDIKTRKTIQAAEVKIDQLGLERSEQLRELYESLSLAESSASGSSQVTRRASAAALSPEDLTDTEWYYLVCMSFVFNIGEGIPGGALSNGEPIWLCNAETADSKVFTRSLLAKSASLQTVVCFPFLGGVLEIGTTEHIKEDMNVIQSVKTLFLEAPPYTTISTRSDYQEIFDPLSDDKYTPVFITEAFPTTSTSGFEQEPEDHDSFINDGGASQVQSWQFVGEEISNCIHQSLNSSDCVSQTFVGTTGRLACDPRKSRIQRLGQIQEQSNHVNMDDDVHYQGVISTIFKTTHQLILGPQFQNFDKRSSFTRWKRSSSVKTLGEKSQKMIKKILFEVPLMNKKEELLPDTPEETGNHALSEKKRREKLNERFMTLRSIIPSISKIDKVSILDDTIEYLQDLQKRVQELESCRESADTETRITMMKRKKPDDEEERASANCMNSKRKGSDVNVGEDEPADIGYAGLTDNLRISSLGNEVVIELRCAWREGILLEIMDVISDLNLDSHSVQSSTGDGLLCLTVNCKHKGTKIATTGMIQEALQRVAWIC

[2] = biological target: T2, TT8 (pBridge-TT8-HAT1, yeast three-hybrid) (Arabidopsis thaliana) (UniProt Q9FT81); assay: as above
T2 sequence: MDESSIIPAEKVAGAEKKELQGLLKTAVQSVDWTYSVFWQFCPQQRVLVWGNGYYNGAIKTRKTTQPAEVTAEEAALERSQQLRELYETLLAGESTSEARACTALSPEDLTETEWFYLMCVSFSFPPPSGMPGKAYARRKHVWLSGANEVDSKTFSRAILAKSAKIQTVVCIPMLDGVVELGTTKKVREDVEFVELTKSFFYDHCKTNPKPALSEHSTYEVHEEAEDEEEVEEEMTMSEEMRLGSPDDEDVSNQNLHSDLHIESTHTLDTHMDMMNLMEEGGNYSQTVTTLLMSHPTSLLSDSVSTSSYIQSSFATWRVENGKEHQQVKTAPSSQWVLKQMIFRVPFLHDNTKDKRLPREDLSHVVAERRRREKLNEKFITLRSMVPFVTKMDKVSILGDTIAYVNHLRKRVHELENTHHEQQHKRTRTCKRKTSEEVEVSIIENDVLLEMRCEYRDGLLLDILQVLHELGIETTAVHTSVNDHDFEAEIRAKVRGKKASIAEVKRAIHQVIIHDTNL

[3] = biological target: T3, AD-MYB75 (pGADT7-MYB75, yeast three-hybrid) (Arabidopsis thaliana) (UniProt Q9FE25); assay: as above
T3 sequence: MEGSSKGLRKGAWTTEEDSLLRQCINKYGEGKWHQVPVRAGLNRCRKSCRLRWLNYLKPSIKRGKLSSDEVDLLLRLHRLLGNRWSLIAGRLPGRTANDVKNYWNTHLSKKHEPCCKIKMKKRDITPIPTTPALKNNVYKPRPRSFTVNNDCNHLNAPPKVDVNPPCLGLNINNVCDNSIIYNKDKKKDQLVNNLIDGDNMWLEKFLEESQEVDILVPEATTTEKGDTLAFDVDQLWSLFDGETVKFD

[4] = biological target: T4, TTG1-cYFP (Arabidopsis thaliana) (UniProt Q9XGN1); assay: split reporter; BiFC; nYFP and cYFP fusions coinfiltrated in N. benthamiana leaves
T4 sequence: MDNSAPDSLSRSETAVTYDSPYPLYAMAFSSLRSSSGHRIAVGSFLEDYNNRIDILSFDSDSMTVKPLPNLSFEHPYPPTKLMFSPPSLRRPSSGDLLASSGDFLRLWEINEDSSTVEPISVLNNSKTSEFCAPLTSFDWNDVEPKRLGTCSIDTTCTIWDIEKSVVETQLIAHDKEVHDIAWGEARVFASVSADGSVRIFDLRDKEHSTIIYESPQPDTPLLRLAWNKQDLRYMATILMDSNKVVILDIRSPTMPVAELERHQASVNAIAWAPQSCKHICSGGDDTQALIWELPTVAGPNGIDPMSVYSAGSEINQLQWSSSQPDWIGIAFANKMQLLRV

[5] = biological target: T5, EGL3-cYFP (Arabidopsis thaliana) (UniProt Q9CAD0); assay: as above
T5 sequence: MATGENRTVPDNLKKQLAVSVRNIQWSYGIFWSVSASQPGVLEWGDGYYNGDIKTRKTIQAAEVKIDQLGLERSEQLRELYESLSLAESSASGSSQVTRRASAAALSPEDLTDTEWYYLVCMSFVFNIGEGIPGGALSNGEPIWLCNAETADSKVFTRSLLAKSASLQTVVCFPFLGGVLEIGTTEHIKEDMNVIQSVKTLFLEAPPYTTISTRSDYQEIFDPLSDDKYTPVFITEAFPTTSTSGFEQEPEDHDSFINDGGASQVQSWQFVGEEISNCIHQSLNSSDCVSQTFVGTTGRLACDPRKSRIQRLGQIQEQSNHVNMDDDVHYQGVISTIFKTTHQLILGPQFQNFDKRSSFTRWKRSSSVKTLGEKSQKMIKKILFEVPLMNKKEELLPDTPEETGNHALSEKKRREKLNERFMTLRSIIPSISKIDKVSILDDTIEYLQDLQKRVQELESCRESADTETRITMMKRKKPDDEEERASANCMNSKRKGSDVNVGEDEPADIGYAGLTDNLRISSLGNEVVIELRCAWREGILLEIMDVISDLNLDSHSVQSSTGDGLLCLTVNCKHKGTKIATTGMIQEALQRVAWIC

[6] = biological target: T6, TT8-cYFP (Arabidopsis thaliana) (UniProt Q9FT81); assay: as above
T6 sequence: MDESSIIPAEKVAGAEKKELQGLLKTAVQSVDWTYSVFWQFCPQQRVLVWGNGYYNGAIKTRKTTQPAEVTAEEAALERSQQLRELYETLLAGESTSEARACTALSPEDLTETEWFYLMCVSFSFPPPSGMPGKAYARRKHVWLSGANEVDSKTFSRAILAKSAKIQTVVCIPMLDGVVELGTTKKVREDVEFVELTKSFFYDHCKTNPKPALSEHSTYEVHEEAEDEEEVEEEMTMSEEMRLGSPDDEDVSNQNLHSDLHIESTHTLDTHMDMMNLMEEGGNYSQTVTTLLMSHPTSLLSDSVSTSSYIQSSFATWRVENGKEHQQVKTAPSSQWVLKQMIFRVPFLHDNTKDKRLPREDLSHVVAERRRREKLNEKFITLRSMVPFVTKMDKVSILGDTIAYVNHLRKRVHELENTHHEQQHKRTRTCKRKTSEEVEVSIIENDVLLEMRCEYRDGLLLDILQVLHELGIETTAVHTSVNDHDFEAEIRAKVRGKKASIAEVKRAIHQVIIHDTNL

B1: AD-MYB75 (pGADT7-MYB75, yeast three-hybrid) (protein, UniProt Q9FE25 1-248)
chain: MEGSSKGLRKGAWTTEEDSLLRQCINKYGEGKWHQVPVRAGLNRCRKSCRLRWLNYLKPSIKRGKLSSDEVDLLLRLHRLLGNRWSLIAGRLPGRTANDVKNYWNTHLSKKHEPCCKIKMKKRDITPIPTTPALKNNVYKPRPRSFTVNNDCNHLNAPPKVDVNPPCLGLNINNVCDNSIIYNKDKKKDQLVNNLIDGDNMWLEKFLEESQEVDILVPEATTTEKGDTLAFDVDQLWSLFDGETVKFD
[1]
  binding: binds
[2]
  binding: binds

B2: HAT1 (expressed from the MET25 promoter of pBridge, yeast three-hybrid) (protein, UniProt P46600 1-282)
chain: MMMGKEDLGLSLSLGFAQNHPLQLNLKPTSSPMSNLQMFPWNQTLVSSSDQQKQQFLRKIDVNSLPTTVDLEEETGVSSPNSTISSTVSGKRRSTEREGTSGGGCGDDLDITLDRSSSRGTSDEEEDYGGETCRKKLRLSKDQSAVLEDTFKEHNTLNPKQKLALAKKLGLTARQVEVWFQNRRARTKLKQTEVDCEYLKRCVEKLTEENRRLEKEAAELRALKLSPRLYGQMSPPTTLLMCPSCERVAGPSSSNHNQRSVSLSPWLQMAHGSTFDVMRPRS
[3]
  binding: binds

B3: HAT1-nYFP (protein, UniProt P46600 1-282)
chain: MMMGKEDLGLSLSLGFAQNHPLQLNLKPTSSPMSNLQMFPWNQTLVSSSDQQKQQFLRKIDVNSLPTTVDLEEETGVSSPNSTISSTVSGKRRSTEREGTSGGGCGDDLDITLDRSSSRGTSDEEEDYGGETCRKKLRLSKDQSAVLEDTFKEHNTLNPKQKLALAKKLGLTARQVEVWFQNRRARTKLKQTEVDCEYLKRCVEKLTEENRRLEKEAAELRALKLSPRLYGQMSPPTTLLMCPSCERVAGPSSSNHNQRSVSLSPWLQMAHGSTFDVMRPRS
[4]
  binding: no binding
[5]
  binding: no binding
[6]
  binding: no binding
